In PubChem BioAssay AID488969 (Vanderbilt High Throughput Screening Facility, 2010):
Whole data set: some 110,000 compounds, median “z-score” near -0.1, cut for the highest 2% near 2. The list shows a part of the results. Calls of active or inactive are those of the source.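 Rule for the calls: active = z-score in the third read window above 3 or below -3; inactive = the rest.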

These compounds were tested against Metabotropic glutamate receptor 8 (Rattus norvegicus) (UniProt P70579) (assay: rat mGluR8 modulators via GIRK flux, primary screen, cell-based, thallium flux, HTS (AID 488969)). Settings: HEK293 rat mGluR8, GIRK (G protein-gated inwardly rectifying potassium channel) thallium flux, FluoZin2; at 10 µM; stronger effect = higher value; submaximal glutamate (EC20) added with thallium.
UniProt P70579, sequence (P70579 whole entry, looked up): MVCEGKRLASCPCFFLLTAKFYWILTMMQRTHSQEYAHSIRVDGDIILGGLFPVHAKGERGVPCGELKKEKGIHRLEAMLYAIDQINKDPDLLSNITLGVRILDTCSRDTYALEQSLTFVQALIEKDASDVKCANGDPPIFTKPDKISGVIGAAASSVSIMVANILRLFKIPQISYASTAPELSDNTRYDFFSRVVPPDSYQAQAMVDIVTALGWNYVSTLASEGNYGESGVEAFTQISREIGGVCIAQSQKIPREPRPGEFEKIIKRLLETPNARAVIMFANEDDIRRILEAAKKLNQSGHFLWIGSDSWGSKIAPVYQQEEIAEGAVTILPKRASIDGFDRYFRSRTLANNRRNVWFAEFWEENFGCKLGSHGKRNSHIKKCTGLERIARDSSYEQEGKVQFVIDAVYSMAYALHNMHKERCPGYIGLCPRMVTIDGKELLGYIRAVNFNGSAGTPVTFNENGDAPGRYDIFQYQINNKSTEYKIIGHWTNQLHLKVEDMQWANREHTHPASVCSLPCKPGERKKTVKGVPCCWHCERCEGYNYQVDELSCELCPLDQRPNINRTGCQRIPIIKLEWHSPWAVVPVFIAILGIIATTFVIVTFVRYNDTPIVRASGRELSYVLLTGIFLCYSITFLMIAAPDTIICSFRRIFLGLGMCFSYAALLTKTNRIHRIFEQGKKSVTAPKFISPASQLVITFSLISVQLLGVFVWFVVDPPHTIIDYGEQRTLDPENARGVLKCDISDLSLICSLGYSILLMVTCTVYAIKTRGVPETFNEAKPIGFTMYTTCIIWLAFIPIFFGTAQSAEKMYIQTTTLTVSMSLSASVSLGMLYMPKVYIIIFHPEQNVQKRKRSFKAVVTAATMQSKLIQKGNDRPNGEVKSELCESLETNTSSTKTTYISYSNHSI

| Structure (SMILES) | z-score |
| --- | --- |
| CCn1c(=O)n(CC)c2cc(S(=O)(=O)N3CCCCC3)c(C)cc21 | -0.0951 |
| CC1Cc2ccccc2N1C(=O)CSc1nc2ccccc2s1 (stereo not given) | -0.167 |
| Cc1ccc2c(c1)[nH]c1c(N3CCN(Cc4ccccc4)CC3)ncnc12 | -0.627 |
| CCCCn1c(-c2nonc2N)nc2ccccc21 | -0.145 |
| COc1ccccc1/C=C/C(=O)NC(=S)N(C)C1CCCCC1 | active: 4.46 |
| Cc1ccccc1CSCCNC(=O)CN(c1ccc2c(c1)OCO2)S(C)(=O)=O | -0.0056 |
| Cc1ccc(C(=O)CSc2nnc(-c3ccccc3N)n2C)cc1 | -0.079 |
| CN1CCc2c(sc(/N=C/c3cccs3)c2C(N)=O)C1 | 0.21 |
| COc1cc(/C=N/NC(=O)c2ccc(O)cc2)ccc1Oc1ccc([N+](=O)[O-])cn1 | 0.226 |
| Cc1ccccc1NC1=NC(=S)N(c2ccccc2)C12CCOC(C)(C)C2 (stereo not given) | active: 12.6 |
| Cc1nc2ccc(NC(=O)c3cccc(C(F)(F)F)c3)cc2o1 | -0.499 |
| C/C(=N\N=C\c1ccc(N(C)C)cc1)c1cccc([N+](=O)[O-])c1 | -0.145 |
| CC(=O)NC1C(=O)N(CCc2ccccc2)c2ccc(Br)cc21 (stereo not given) | 0.217 |
| CC(=NCCN1CCN(C(=S)Nc2ccccc2)CC1)C1=C(O)CC(C)(C)CC1=O | -0.271 |
| CCOC(=O)c1c(NC(=O)CSc2nnc(-c3ccccc3)o2)sc(C(C)=O)c1C | -0.642 |
| CC(C)OCCCNC(=O)c1ccc(NC(=O)C2CCCO2)cc1 (stereo not given) | 0.594 |
| Cc1cc2ncn(C3CC(=O)N(C)C3=O)c2cc1C (stereo not given) | -0.121 |
| COc1cc(C(c2sc3ncnn3c2O)N2CCN(c3ccccc3F)CC2)cc(OC)c1OC (stereo not given) | 0.0119 |
| C=CCN=C1SC(CC)C(=O)N1S(=O)(=O)c1ccc(C)cc1 (stereo not given) | 0.327 |
| COc1ccc(OC)c(/C=C/C(=O)OCC(=O)Nc2ccc3c(c2)OCCO3)c1 | 0.113 |
| COc1c(Cl)cc(Cl)cc1C(=O)n1nc(C)cc1C | -0.241 |
| Fc1cccc(-n2ncc(-c3nnnn3-c3ccccc3)c2C(F)(F)F)c1 | -0.403 |

| Structure (SMILES) | z-score |
| --- | --- |
| CN(c1cccc(NC(=O)CN(c2ccc(C34CC5CC(CC(C5)C3)C4)cc2)S(C)(=O)=O)c1)S(C)(=O)=O | 0.173 |
| O=C(O)C(Cc1ccccc1)N1C(=O)/C(=C/c2cccc3ccccc23)SC1=S (stereo not given) | -1.28 |
| O=C1CSC2(CCCCC2)N1CCO | -0.0975 |
| CC1CCN(c2c(NCc3ccc(C(=O)N4CCc5ccccc54)cc3)c(=O)c2=O)CC1 | 0.0125 |
| Cc1c(Br)c([N+](=O)[O-])nn1C(C)C(=O)Nc1c(C)n(C)n(-c2ccccc2)c1=O (stereo not given) | -0.137 |
| CC(=O)c1ccc(OCCCC(=O)OCc2nnc(-c3ccc(Cl)cc3)o2)cc1 | 0.677 |
| CCC1(C)N(O)C(C)(C)C(c2ccc(OC)cc2)=[N+]1[O-] (stereo not given) | -0.217 |
| Cc1ccc(-n2c(O)c(/C=N/n3cnnc3)c3ccccc3c2=O)cc1 | -0.447 |
| Cc1ccc(SCC(=O)Nc2ccc3c(c2)OCCO3)cc1 | -0.155 |
| CCn1c(SCC(=O)Nc2sc3c(c2C#N)CCC(C(C)(C)C)C3)nnc1-c1ccco1 (stereo not given) | -0.0681 |
| CCCCC(=O)Nc1cc(OCC)c(NC(=O)c2ccccc2[N+](=O)[O-])cc1OCC | -0.424 |
| COc1ccccc1NC(=O)c1oc2ccccc2c1NC(=O)c1cc(OC)c(OC)c(OC)c1 | -0.0644 |
| O=C(COC(=O)C1(c2ccccc2F)CCCC1)N1CCN(C(=O)c2ccco2)CC1 | -0.0374 |
| C/C(=C\C(=O)Nc1nccs1)c1ccccc1 | -0.25 |
| COC(=O)c1sccc1NC(=O)c1ccc(C)s1 | -0.334 |
| COC(=O)c1ccc2nc(C(F)(F)F)[nH]c2c1 | 0.00654 |
| CC(C)CC(=O)N1CCN(C(=O)c2cccc(F)c2)CC1 | -0.332 |
| C/C(Cc1ccccc1)=N\NC(=O)CCCCCC(=O)N/N=C(\C)Cc1ccccc1 | -0.0163 |
| COc1ccc(Oc2c(C)oc3cc(OC(=O)N4CCOCC4)ccc3c2=O)cc1 | 0.127 |
| CN1CCN(C(=S)NC(=O)/C=C/c2ccccc2)CC1 | 0.401 |
| CCN(CC)C(=O)n1cnc(-c2ccccc2)c1-c1ccccc1 | -0.325 |
| CCn1c(NC(=O)c2cccc(Cn3cc(Cl)cn3)c2)nc2ccccc21 | 0.18 |

| Structure (SMILES) | z-score |
| --- | --- |
| O=C(COC(=O)Cc1ccc(S(=O)(=O)N2CCOCC2)s1)NCc1ccc(Cl)cc1 | -0.331 |
| Cc1ccc(OCCOc2ccc(Cl)cc2Cl)c([N+](=O)[O-])n1 | -0.167 |
| Cc1ccc(OCC(=O)N2CCCCC2)c(Br)c1 | 0.0809 |
| CC1(C)CC(=O)c2cnc(N3CCc4ccccc4C3)nc2C1 | 0.63 |
| Cn1c(=O)n(C)c2cc(NS(C)(=O)=O)ccc21 | 0.0288 |
| CCCn1c(N)c(C(=S)NC(=O)C2CC2)c(=O)n(C)c1=O | 0.941 |
| O=C1C(=O)N(CCN2CCCCC2)c2ccccc21 | 0.0049 |
| CCC(=O)Nc1ccc2c(c1)ncn2-c1ccccc1 | 0.261 |
| c1csc(CNCCN2CCOCC2)c1 | -0.0197 |
| O=C(Nc1nncs1)c1c(F)c(F)c(F)c(F)c1F | 0.819 |
| Cc1nnc2sc(SCc3ccc(Cl)cc3)nn2c1=O | -0.0253 |
| CCN(CC)CCNC(=O)C12CC3CC(C)(CC(C)(C3)C1)C2 | 0.873 |
| COc1ccc(-n2c(C)n[nH]c2=O)cc1 | 1.02 |
| O=S(=O)(c1ccc2c(c1)OCCO2)N1CCC(n2nnc3cc(F)ccc32)CC1 | -0.35 |
| O=C(c1cccc([N+](=O)[O-])c1)N1CCN(c2cccc(Cl)c2)CC1 | -0.124 |
| COc1ccc2nc(NC(=O)CCn3cccc3)sc2c1 | -0.0546 |
| O=C(Nc1cccc(S(=O)(=O)N2CCCCC2)c1)c1c2c(nc3ccccc13)CCN(Cc1ccccc1)C2 | 0.0436 |
| CCCCS(=O)CC(CS(=O)CCCC)OC(=O)c1ccccc1 (stereo not given) | 0.895 |
| O=C(O)c1c(-c2ccccc2)c2oc3ccccc3c2[nH]c1=O | -0.0833 |
| Cc1ccc(-n2ncc3c(=O)n(-c4ccc(C)c(C)c4)c(-c4ccco4)nc32)cc1 | -0.219 |
| Cc1ccc(NNC(=O)C(=O)N2CCCCC2)cc1 | -0.317 |
| CCCCCCCCNC(=O)C(CCC(=O)OCc1ccccc1)NC(C)=O (stereo not given) | -0.362 |

| Structure (SMILES) | z-score |
| --- | --- |
| COc1ccc(C(C(=O)NC2CCCCC2)N(Cc2cccs2)C(=O)Cc2c[nH]c3ccccc23)cc1 (stereo not given) | -0.128 |
| O=C(CSc1nccc(=O)[nH]1)N1CCCc2ccccc21 | -1.4 |
| Cc1c(C(=O)Nc2cccc(-c3nnc4n3CCCCC4)c2)oc2ccccc12 | 0.703 |
| CN(c1ccccc1)c1nc2ccsc2c(=O)s1 | -0.971 |
| CN(Cc1ccc(O)cc1)C1CCCCC1 | 0.708 |
| S=C(c1ccc[nH]1)N1CCOCC1 | 0.291 |
| CCCCCCC(=O)Nc1ccc(C(=O)N2CCCC2)cc1 | -0.187 |
| O=S(=O)(c1ccc2ccccc2c1)N(CC(O)COCc1ccco1)c1ccccc1 (stereo not given) | -0.633 |
| CCSc1nc2c(c(=O)[nH]c(=O)n2C)n1CC(O)COc1ccccc1C (stereo not given) | -0.0318 |
| COc1cc(C(=O)O)cc(OC)c1OCc1cc(C(=O)O)oc1C | 0.311 |
| CC(=C1C(=O)c2ccccc2C1=O)N1CCN(C/C=C/c2ccccc2)CC1 | 2.04 |
| COc1ccc(CC(=O)Nc2cccc(-c3csc(C)n3)c2)cc1 | 1.88 |
| Cc1cc(C(=O)CN2C(=O)NC(C)(c3cccc(Br)c3)C2=O)c(C)n1Cc1ccco1 (stereo not given) | 0.276 |
| CN=C1SC(CC(=O)Nc2cccc(C(F)(F)F)c2)C(=O)N1C (stereo not given) | 0.056 |
| Cc1cc(-c2n[nH]c(=S)n2/N=C/C(Br)=C/c2ccccc2)n[nH]1 | -0.283 |
| CCOC(=O)CNC(=O)c1cc(C)oc1C | 0.701 |
| Fc1ccc(Cn2c(SCc3ccc(F)c(C(F)(F)F)c3)nnc2C(F)(F)F)cc1 | -0.265 |
| Cn1cccc1-c1nc2ccc(NC(=O)c3ccccc3)cc2[nH]1 | -0.561 |
| CCOC(=O)C(NC(=O)Nc1ccc(F)cc1F)(Oc1ccccc1)C(F)(F)F (stereo not given) | -2.64 |
| CC(=O)c1c(C(C)=O)c(C)n(-c2nc(-c3ccc(C)c(C)c3)c(C)s2)c1C | -0.531 |
| Cc1cc(Cl)c(S(=O)(=O)NCc2ccncc2)cc1OCC(N)=O | 0.0102 |
| COCCCNC(=S)NNC(=S)Nc1ccc(F)cc1F | 0.0456 |

| Structure (SMILES) | z-score |
| --- | --- |
| Cc1nn(-c2ccccc2)c2c1C(c1c(C)[nH]c(C#N)c1C)C(C#N)=C(N)O2 (stereo not given) | -0.228 |
| O=C(Nc1nncs1)c1ccc(S(=O)(=O)c2ccccc2)cc1 | -0.535 |
| COc1cc2cc(CN(Cc3nnnn3Cc3ccco3)C3CCCCC3)c(=O)[nH]c2cc1OC | -2.72 |
| CCc1ccccc1N(CC)C(=O)c1cn(C)c(=O)c2cc(OC)c(OC)cc12 | -0.534 |
| O=C(c1ccco1)N1CCN(C(=O)N2CCOCC2)CC1 | 0.0701 |
| O=C1c2ccccc2C(=O)C12OC2c1ccc(Cl)cc1Cl (stereo not given) | -2.03 |
| Cc1ccc(/C=C/c2ccc(=O)n(Cc3ccccc3Cl)n2)cc1 | -0.116 |
| Cc1nc(C)c(C(=O)N(c2ccc(C)c(C)c2)C(C(=O)NCc2ccco2)c2ccccc2)s1 (stereo not given) | -1.4 |
| COc1ccc(C(=O)c2cn[nH]c2-c2cc(Cl)ccc2O)cc1 | -0.207 |
| COc1cccc(C(=O)COC(=O)c2ccc(NC(=O)c3ccccc3)cc2)c1 | -0.304 |
| COc1ccc(-c2c(C)n([O-])c(C)c(C)[n+]2=O)cc1OC | -0.261 |
| CSc1nccc(-c2cc(Cl)sc2Cl)n1 | -0.127 |
| COC(=O)CSc1n[nH]c(-c2cccnc2)n1 | 2.21 |
| CCOC(=O)c1ccc(NC(=O)c2cccc(S(=O)(=O)N3c4ccccc4CC3C)c2)s1 (stereo not given) | 0.51 |
| COC(=O)Cc1c(C)c2ccc(OCC(=O)N3CCOCC3)cc2oc1=O | -0.0395 |
| Cc1cc2ncn(CCOc3ccccc3)c2cc1C | -1.43 |
| O=c1[nH]c(=S)[nH]nc1Cc1ccccc1 | 0.282 |
| Cc1cc(C)nc(N2CCCC(C(=O)Nc3cc(F)ccc3C)C2)n1 (stereo not given) | -0.253 |
| Oc1ccc(-c2nc3ccccn3c2NCc2ccco2)cc1 | -0.884 |
| CCOc1nc(NC(=O)NC(=O)c2ccccc2)nc(-c2ccccc2)n1 | -0.276 |
| COc1ccc(C(=O)Cn2c(=O)c(CCC(=O)O)nn3c4ccccc4nc23)cc1OC | 0.0747 |
| CC1CCCCN1C(=O)CSc1nnc(CSc2ncccn2)n1C (stereo not given) | 0.773 |
